Data from PubChem BioAssay AID686978 (National Center for Advancing Translational Sciences (NCATS), 2013).
Screen size: about 420,000 compounds; about 64,000 (15%) were called active. Inconclusive results, whose numbers are uncertain, are shown with a selection of clear calls. The call rests on the fitted dose curve; in most records, active means well fitted inhibition curve with a large enough effect; inconclusive means small, poorly fitted or top-dose-only effect; inactive means flat fitted curve, though single readings scatter. Potencies of inconclusive entries are left out as doubtful fits.

Assay: qHTS for Inhibitors of human tyrosyl-DNA phosphodiesterase 1 (TDP1): qHTS in cells in absence of CPT; further: nearly all actives have a fitted effect of over 55% in size
Conditions: DT40 Tdp1-/- hTDP1 cells, no CPT, ATP luminescence, 48 h; activity change, negative = growth inhibition: at 46.2 µM (top of the series) unless noted
Method in brief: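 No-CPT arm: Tdp1-/-;hTDP1 DT40 cells (400/well) plus compounds, incubated ≥48 hr at 37 °C. Readout CellTiter-Glo luminescence.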
On the % scale 0 is the no-effect control and ±100 the full control effect; potency means the concentration at half of the fitted maximal effect; tags describe the fitted curve by direction and shape.

SMILES | Potency | activity change, negative = growth inhibition
Cc1cc(Br)c(NC(=O)c2c(-c3c(Cl)cccc3Cl)noc2C)c(Br)c1 | inconclusive [inhibitor, single point] | –
COc1ccc(CCNC(=O)c2nnn(-c3ccc4c(c3)OCCO4)c2N)cc1OC | inconclusive [inhibitor, single point] | –
CCc1nnc(SCC(=O)Nc2ccccc2Cl)nc1CC | inconclusive [inhibitor, single point] | inconclusive: -30.2% [inhibitor]
CNCCCOc1cccc(OC(C)C)c1 | inactive | –
N#C/C(=N\Nc1ccccc1F)c1nc(-c2ccccc2)cs1 | inconclusive [inhibitor, single point] | –
CN(CC(=O)NC1CCN(Cc2ccccc2)CC1)S(=O)(=O)c1ccc(Cl)s1 | inconclusive [inhibitor, single point] | –
COc1ccc(C(=O)Nc2nnc(-c3ccco3)s2)cc1 | inconclusive [inhibitor, single point] | –
Nc1cc2nc3ccccc3oc-2cc1=O | active: 1.84 µM | –
Cc1ccnc(NC(=O)CCc2c[nH]c3ccccc23)c1 | inactive | –
Cc1ccc(C)c(NC(=O)CC2NCCNC2=O)c1 (stereo not drawn) | inactive | –
Cc1ccc(NC(=O)Cn2c(O)c(N=NC(N)=S)c3ccccc32)cc1 | inconclusive [inhibitor, partial curve] | –
CCOC(=O)C1=C(COC(=O)/C=C/c2ccc(F)cc2)NC(=O)NC1C (stereo not drawn) | inactive | –
COc1ccc(N(C(=O)c2ccc(OC)c(OC)c2)S(=O)(=O)c2ccc(Cl)cc2)cc1 | active: 20.6 µM | –
CCN(CC(=O)Nc1ccccc1Br)Cc1nc2ccccc2c(=O)[nH]1 | inconclusive [inhibitor, partial curve] | –
COc1cccc(NC(=O)CSc2nnc3scc(-c4ccc(Cl)cc4)n23)c1 | active: 18.4 µM | –
C1=C(c2ccc(-c3ccccc3)cc2)Nc2ncnn2C1c1ccco1 (stereo not drawn) | active: 16.4 µM | –
Cc1ccc(OCC(=O)NCc2ccccn2)c(Br)c1 | inactive | –
CCOC(=O)c1c(NC=O)sc2c1CCC2 | inactive | –
Cc1nc(N2CCCCC2C)c2c(C)c(C(=O)Nc3cccc(C(F)(F)F)c3)sc2n1 (stereo not drawn) | inconclusive [inhibitor, single point] | –
Cc1ccc(NC(=O)C2CCCN(c3nnc(-n4c(C)ccc4C)s3)C2)c(C)c1 (stereo not drawn) | active: 16.4 µM | –
N#Cc1ccccc1Cn1c(=O)n(CCCC(=O)NCc2ccc3c(c2)OCO3)c(=O)c2sccc21 | inconclusive [inhibitor, partial curve] | –
O=C(Nc1ccc(OC(F)(F)F)cc1)c1ccc(S(=O)(=O)N2CCOCC2)o1 | active: 16.4 µM | –
CN(C)C(CNC(=O)c1cc(S(=O)(=O)N(C)Cc2ccccc2)ccc1Cl)c1ccco1 (stereo not drawn) | active: 11.6 µM | –
Cc1cccc(C(=O)OCC(=O)N(C)C(c2ccccc2)c2ccccc2)c1[N+](=O)[O-] | active: 7.31 µM | –

SMILES | Potency | activity change, negative = growth inhibition
c1ccc(Cn2nnc3c(N4CCCCCC4)ncnc32)cc1 | active: 16.4 µM | –
O=C(N/N=C/c1ccc([N+](=O)[O-])cc1)c1cccc2cc[nH]c12 | inconclusive [inhibitor, single point] | –
CCCN(CCC)C(=O)Cn1c(=O)n(-c2cccc(OC)c2)c(=O)c2c3c(sc21)CCCC3 | inconclusive [inhibitor, single point] | –
O=C(c1ccc2c(c1)N(Cc1cccc(F)c1)C(=O)c1ccccc1S2)N1CCOCC1 | inconclusive [inhibitor, partial curve] | –
CC1Cc2cc(S(=O)(=O)NCCC(=O)N(C)Cc3ccccc3)ccc2N1C(=O)C1CC1 (stereo not drawn) | inconclusive [inhibitor, partial curve] | –
c1csc(-c2nnc(-c3ccc(N4CCOCC4)cc3)o2)c1 | inconclusive [inhibitor, partial curve] | –
Cc1ccc(CNc2cnn(C34CC5CC(CC(C5)C3)C4)c(=O)c2Cl)cc1 | inconclusive [inhibitor, partial curve, poor fit] | –
Cc1cccc(-n2c(O)c(C=Nc3cc(O)ccc3C)c3ccccc3c2=O)n1 | inconclusive [inhibitor, single point] | –
O=C(Cc1ccccc1)NCC1OCCc2ccccc21 (stereo not drawn) | inactive | –
O=C(Cc1ccccc1Cl)Nc1cc(S(=O)(=O)N2CCOCC2)ccc1N1CCOCC1 | inactive | –
COC(=O)c1ccc(NC(=O)CN2CCC(NC(=O)c3ccccc3F)CC2)cc1 | inconclusive [inhibitor, single point] | –
CC(C)Cc1nnc(NC(=O)CCC(=O)NCCc2ccc(Cl)cc2)s1 | inactive | –
COc1ccc(N2CCN(CCNS(=O)(=O)c3cccc4nsnc34)CC2)cc1 | inconclusive [inhibitor, single point] | –
Cc1ccc(S(=O)(=O)c2nnn3c2nc(N2CCN(c4ccccc4F)CC2)c2cc(Cl)ccc23)cc1C | inactive | –
CC(C)n1c(N2CCN(CC(=O)NCc3cccs3)CC2)nc2ccccc21 | inconclusive [inhibitor, single point] | –
CCCCc1cc(=O)oc2c(CN(C)C)c(O)ccc12 | inactive | –
CCN(CC)S(=O)(=O)N1CCC(C(=O)NC2CCCc3ccccc32)CC1 (stereo not drawn) | inconclusive [inhibitor, partial curve, poor fit] | –
Cc1c(N)cccc1-n1cnnn1 | inactive | –
CCOc1ccc(-c2nnc(NC(=O)CCCOc3cccc(C)c3)o2)cc1 | inconclusive [inhibitor, partial curve] | –
CCOc1ccc(S(=O)(=O)N2CCN(Cc3ccc4c(c3)OCO4)CC2)cc1C | inactive | –
COc1ccc(/C=C2/CCCC(C(=O)C(F)(F)F)=C2O)cc1OC | active: 18.4 µM | –
Cc1ccccc1CN1C(=O)c2ccccc2S(=O)c2ccc(C(=O)NC3CCC(C)CC3)cc21 (stereo not drawn) | inactive | –
CC(=O)N1c2c(cc(Br)cc2S(=O)(=O)N2CCN(c3cc(C)ccc3C)CC2)CC1C (stereo not drawn) | active: 14.6 µM | –
